In all, about 310,000 compounds went through this assay and about 14,000 (4.5%) showed an effect of 50% or more. The effect is printed as a negative number. This is one part of the list.
Target: human ether-à-go-go-related gene (hERG) potassium channel (human, UniProt Q12809)
Test: primary screen, population patch clamp on CHO cells stably expressing hERG
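Note: peak tail current of the secondary pulse compared with the same well before compound.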

Chain of human ether-à-go-go-related gene (hERG) potassium channel (Q12809 whole entry, looked up): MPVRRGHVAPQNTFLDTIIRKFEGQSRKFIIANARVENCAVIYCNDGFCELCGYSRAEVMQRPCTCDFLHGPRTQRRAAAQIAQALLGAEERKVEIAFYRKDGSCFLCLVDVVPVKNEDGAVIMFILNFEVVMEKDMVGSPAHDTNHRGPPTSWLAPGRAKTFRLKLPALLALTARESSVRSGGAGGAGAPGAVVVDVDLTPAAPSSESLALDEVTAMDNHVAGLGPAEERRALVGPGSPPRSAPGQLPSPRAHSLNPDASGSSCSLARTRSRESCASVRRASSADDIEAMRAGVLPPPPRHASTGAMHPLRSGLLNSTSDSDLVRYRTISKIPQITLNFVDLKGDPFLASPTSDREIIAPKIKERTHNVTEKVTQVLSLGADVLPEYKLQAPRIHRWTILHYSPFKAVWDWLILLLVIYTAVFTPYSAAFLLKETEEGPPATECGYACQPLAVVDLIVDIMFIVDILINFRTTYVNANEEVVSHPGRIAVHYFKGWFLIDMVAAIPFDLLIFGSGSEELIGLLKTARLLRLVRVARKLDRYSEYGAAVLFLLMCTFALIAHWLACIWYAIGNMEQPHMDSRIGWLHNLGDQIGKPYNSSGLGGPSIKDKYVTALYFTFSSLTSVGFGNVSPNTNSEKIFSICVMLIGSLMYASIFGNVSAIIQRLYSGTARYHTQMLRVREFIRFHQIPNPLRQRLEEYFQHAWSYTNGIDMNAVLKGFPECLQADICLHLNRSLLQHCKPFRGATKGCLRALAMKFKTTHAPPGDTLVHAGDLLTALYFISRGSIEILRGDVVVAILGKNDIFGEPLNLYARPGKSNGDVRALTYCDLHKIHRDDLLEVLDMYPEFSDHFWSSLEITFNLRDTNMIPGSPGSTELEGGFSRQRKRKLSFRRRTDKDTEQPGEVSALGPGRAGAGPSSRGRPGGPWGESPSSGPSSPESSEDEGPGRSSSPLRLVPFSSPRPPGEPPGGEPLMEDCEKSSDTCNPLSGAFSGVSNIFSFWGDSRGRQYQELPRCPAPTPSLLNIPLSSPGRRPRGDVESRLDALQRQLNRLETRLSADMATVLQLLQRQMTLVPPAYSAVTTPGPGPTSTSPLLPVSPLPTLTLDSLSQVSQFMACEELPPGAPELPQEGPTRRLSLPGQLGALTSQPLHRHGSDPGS

Structure (SMILES)	hERG current change (%, negative = inhibition) at 10uM [%]
CCN1CC(CNCc2cn(-c3ccc(OC)cc3)nc2-c2ccccc2Cl)CC1=O (stereo not shown)	-24.4
Cc1sc2ncnc(OCC(=O)NC(C)C)c2c1C	6.65
Cn1c(C(=O)N2CCCC(C(=O)NCc3cccs3)C2)cc2sccc21 (stereo not shown)	-16.1
CC(=O)n1cc([C@@H]2C=C(C(=O)N3CCOCC3)O[C@H](OCCCCO)C2)c2ccccc21	-51.6
N#CCC(=O)Nc1ccc(C(=O)NCC(c2ccco2)N2CCCCC2)cc1 (stereo not shown)	5.07
Cc1nc2cc(Cl)c(Cl)cc2n1CCCO	-7.59
CSc1cccc(N2CC(C(=O)Nc3ccccc3N3CCCC3)CC2=O)c1 (stereo not shown)	-27.4
Cc1ccc(C)c(S(=O)(=O)N=Nc2c(O)[nH]c3ccccc23)c1	57.5
O=C(CN1CCC(n2cnc3cc(F)ccc32)CC1)Nc1ccccc1Br	-87.8
CC(C)c1ccc(OC(=O)c2cccc(S(=O)(=O)N3CCN(C)CC3)c2)cc1	14.2
COc1ccc(CC(=O)Nc2nc3ccccc3[nH]2)cc1	5.36
C/C(CC(=O)Nc1ccc([N+](=O)[O-])cc1)=N\NC(=O)c1ccccc1[N+](=O)[O-]	8.67
N#CC(C#N)=NNc1ccc([N+](=O)[O-])cc1	-2.55
Cc1ccc([N+](=O)[O-])cc1/C=N/Nc1nnnn1-c1ccccc1	-7.28
COc1ccc(CN2CN(c3ccc(Cl)cc3)C(=O)N(n3cnnc3)C2)cc1	-38.6
O=S(=O)(/C=C/c1ccccc1)Nc1ccc(N2CCOCC2)cc1	-18.4
O=C(/C=C(\O)c1ccccc1)C(=O)NNC(=O)c1ccccc1[N+](=O)[O-]	17
COC(=O)c1ccc(N2CCOCC2)c(NC(=O)Nc2cccc(OC)c2)c1	-20.4
CC(=O)Nc1sc(C)c(C)c1C(=O)Nc1ccc(C)cc1	8.19
Cc1ccc(N(Cc2ccco2)C(=O)c2ccc(N3CCCCC3)c([N+](=O)[O-])c2)cc1	-4.74
CC1CN(C(=O)CN2C(=O)NC3(CCCCCCC3)C2=O)CC(C)O1 (stereo not shown)	9.22
CC(C)C(=O)Nc1nnc(S(=O)(=O)N(C)c2ccc(Cl)cc2)s1	7.58
CCCCc1ccc(NC(=O)COCC)cc1	-3.7
Cl.NCCc1cnc[nH]1	16.6
O=C1OCCC1Sc1nnc(-c2ccccc2Cl)n1Cc1ccccc1 (stereo not shown)	2.19
